The text below walks through data of patent CN113651889A.

Experiment [1] deals with EphA2 receptor on tumour cells (PC-3, HepG2, A549) and on lung adenocarcinoma tissue (human) (UniProt P29317). Description: flow cytometry on A549 cells, antibody at 2.5 ug/ml and above, Alexa Fluor 488 anti-human IgG. Background: A flow cytometer gives signals particle by particle.
For experiment [2] the target is unchanged. The experiment in a line: flow cytometry on PC-3 cells, antibody at 1.25 ug/ml and above, Alexa Fluor 488 anti-human IgG.
Experiment [3] shares this target. Description: flow cytometry on PC-3 cells, antibody at 2.5 ug/ml and above, Alexa Fluor 488 anti-human IgG.
For experiment [4] the target is unchanged. Description: flow cytometry on A549 cells, antibody at 1.25 ug/ml and above, Alexa Fluor 488 anti-human IgG.

UniProt P29317, sequence (P29317 24-976): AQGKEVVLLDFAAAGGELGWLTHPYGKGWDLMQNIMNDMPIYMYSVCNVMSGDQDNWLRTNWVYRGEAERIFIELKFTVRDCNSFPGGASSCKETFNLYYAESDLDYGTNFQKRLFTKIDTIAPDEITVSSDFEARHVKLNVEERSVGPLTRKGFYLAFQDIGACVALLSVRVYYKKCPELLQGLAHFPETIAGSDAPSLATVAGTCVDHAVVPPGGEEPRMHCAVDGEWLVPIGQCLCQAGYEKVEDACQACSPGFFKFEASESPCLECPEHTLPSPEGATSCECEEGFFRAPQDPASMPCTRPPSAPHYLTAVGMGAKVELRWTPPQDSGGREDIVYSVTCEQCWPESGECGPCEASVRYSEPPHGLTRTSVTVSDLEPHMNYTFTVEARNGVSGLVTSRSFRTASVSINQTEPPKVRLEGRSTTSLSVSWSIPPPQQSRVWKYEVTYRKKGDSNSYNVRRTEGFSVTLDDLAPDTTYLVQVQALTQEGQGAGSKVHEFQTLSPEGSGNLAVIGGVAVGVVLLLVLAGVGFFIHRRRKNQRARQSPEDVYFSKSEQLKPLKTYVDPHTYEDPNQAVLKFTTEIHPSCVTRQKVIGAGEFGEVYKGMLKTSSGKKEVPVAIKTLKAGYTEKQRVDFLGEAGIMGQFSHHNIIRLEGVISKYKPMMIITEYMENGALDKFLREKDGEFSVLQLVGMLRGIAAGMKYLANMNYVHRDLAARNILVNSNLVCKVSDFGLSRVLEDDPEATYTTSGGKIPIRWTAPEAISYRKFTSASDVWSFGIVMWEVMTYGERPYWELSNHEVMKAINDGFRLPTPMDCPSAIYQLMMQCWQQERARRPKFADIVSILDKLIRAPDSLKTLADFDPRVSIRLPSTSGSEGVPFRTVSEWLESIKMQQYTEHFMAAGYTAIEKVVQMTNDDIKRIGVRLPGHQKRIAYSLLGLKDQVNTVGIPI

B1: scFv179-Fc (Fc fusion)
chain: QVQLVESGGGLVQPGGSLRLSCAASGFTVSSNYMSWVRQAPGKELEWVSVIYSGGSTYYADSVKGRFTISRHNSKNTLYLQMNSLRAEDTAVYYCARDMGEYGMDVWGQGTTVTVSSGSASAPTGGGGSGGGGSGGGGSSYELTQPLSVSVSPGQTASITCSGDKLGNKYVSWYQQKPGQSPVLVIFQNNKRPSGIPERFSGSNSGNTATLTISGTQAMDEADFYCQAWDSSSAWVFGGGTKVTVL[gap - human IgG1 Fc]
Turning to B1, the values for the 结合率 (percent of cells bound) in experiment [1] and in experiment [2] were over 93% and over 99%, respectively.

B2: scFv14-Fc (Fc fusion)
chain: QVQLQQWGAGLLKPSETLSLTCAVYGGSFSGYYWSWIRQPPGKGLEWIGEINHSGSTNYNPSLKSRVTISVDTSKNQFSLKLSSVTAADTAVYYCARVLRWMGWFDPWGQGTLVTVSSGSASAPTGGGGSGGGGSGGGGSEIVLTQSPLSLPVTPGEPASISCRSSESLLHSNGHNFLDWYLQKPGQSPRLLIYSASNRASGVPDRFSGSGSGTDFTLKISRVEAEDVGVYYCMQGLQGLTFGGGTKVEIK[gap - human IgG1 Fc]
Take B2: the 结合率 (percent of cells bound) is over 86% in experiment [3] and over 81% in experiment [1].

B3: scFv77-Fc (Fc fusion)
chain: QVQLVQSGAEVKKPGASVKVSCRASGYRFTGAYIHWVRQAPGQGLEWMGWINPDNGDTNYAQKFQGRVSLTGDTSISTTYMEMKSLTFGDTAVYYCARSRAADYWGQGTLVTVSSGGGGSGGGGSGGGGSQPVLTQSPSVSVSPGHRVTITCSGDNLGDKYVAWYQQKLGHSPVLVIFQDTKRPSGVPERFSGSTSENTATLTISGIQVLDEADYYCQAWDRSTAIFGGGTKVTVL[gap - human IgG1 Fc]
In the case of B3, the 结合率 (percent of cells bound) in experiment [4] and in experiment [2] was over 99% throughout.
